# Laboratory results published in the supplement of paper PMC8728848.
# The list shows a part of the results.
# Tests used:
# Assay in all cases: glycan array binding signal (z-score within array); higher = stronger binding
# Details in all cases: glycan notation: IUPAC condensed, linker removed
# [1] = target: Gal(b1-4)GlcNAc(b1-2)Man(a1-6)[Man(a1-3)]Man(b1-4)GlcNAc(b1-4)GlcNAc
# Method in brief: (§1)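 Negative Z-scores can be read as non-binding. The Z-score is calculated within each array and then averaged across arrays of one protein sequence at different concentrations or buffers and across linkers. Arrays, 3228 in all, were curated from the Consortium for Functional Glycomics database and kept only where the protein sequence was available.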
# [2] = target: Gal(b1-4)GlcNAc(b1-2)[Gal(b1-4)GlcNAc(b1-4)]Man(a1-3)[Gal(b1-4)GlcNAc(b1-2)Man(a1-6)]Man(b1-4)GlcNAc(b1-4)GlcNAc
# Method in brief: as §1
# [3] = target: Gal(b1-4)GlcNAc(b1-2)[Gal(b1-4)GlcNAc(b1-4)]Man(a1-3)[Gal(b1-4)GlcNAc(b1-2)[Gal(b1-4)GlcNAc(b1-6)]Man(a1-6)]Man(b1-4)GlcNAc(b1-4)GlcNAc
# Method in brief: as §1
# [4] = target: Gal(b1-4)GlcNAc(b1-2)[Gal(b1-4)GlcNAc(b1-4)]Man(a1-3)[GlcNAc(b1-4)][Gal(b1-4)GlcNAc(b1-2)Man(a1-6)]Man(b1-4)GlcNAc(b1-4)GlcNAc
# Method in brief: as §1
# [5] = target: Gal(b1-4)GlcNAc(b1-2)[Gal(b1-4)GlcNAc(b1-4)]Man(a1-3)[GlcNAc(b1-4)][Gal(b1-4)GlcNAc(b1-2)[Gal(b1-4)GlcNAc(b1-6)]Man(a1-6)]Man(b1-4)GlcNAc(b1-4)GlcNAc
# Method in brief: as §1
# [6] = target: Gal(b1-4)GlcNAc(b1-2)[Gal(b1-4)GlcNAc(b1-6)]Man(a1-6)[Gal(b1-4)GlcNAc(b1-2)Man(a1-3)]Man(b1-4)GlcNAc(b1-4)GlcNAc
# Method in brief: as §1
# [7] = target: Gal(b1-4)GlcNAc(b1-2)[Gal(b1-4)GlcNAc(b1-6)]Man(a1-6)[Gal(b1-4)GlcNAc(b1-2)Man(a1-3)]Man(b1-4)GlcNAc(b1-4)[Fuc(a1-6)]GlcNAc
# Method in brief: as §1
# [8] = target: Gal(b1-4)GlcNAc(b1-2)[Gal(b1-4)GlcNAc(b1-6)]Man(a1-6)[GlcNAc(b1-4)][Gal(b1-4)GlcNAc(b1-2)Man(a1-3)]Man(b1-4)GlcNAc(b1-4)GlcNAc
# Method in brief: as §1
# [9] = target: Gal(b1-4)GlcNAc(b1-2)[Gal(b1-4)GlcNAc(b1-6)]Man(a1-6)[GlcNAc(b1-4)][Gal(b1-4)GlcNAc(b1-2)[Gal(b1-4)GlcNAc(b1-4)]Man(a1-3)]Man(b1-4)GlcNAc(b1-4)[Fuc(a1-6)]GlcNAc
# Method in brief: as §1
# [10] = target: Gal(b1-4)GlcNAc(b1-3)Gal(b1-3)GalNAc
# Method in brief: as §1
# [11] = target: Gal(b1-4)GlcNAc(b1-3)Gal(b1-3)GlcNAc
# Method in brief: as §1
# [12] = target: Gal(b1-4)GlcNAc(b1-3)Gal(b1-4)Glc
# Method in brief: as §1
# [13] = target: Gal(b1-4)GlcNAc(b1-3)Gal(b1-4)GlcNAc
# Method in brief: as §1
# [14] = target: Gal(b1-4)GlcNAc(b1-3)Gal(b1-4)GlcNAc(b1-2)Man(a1-3)[Gal(b1-4)GlcNAc(b1-3)Gal(b1-4)GlcNAc(b1-2)Man(a1-6)]Man(b1-4)GlcNAc(b1-4)GlcNAc
# Method in brief: as §1
# [15] = target: Gal(b1-4)GlcNAc(b1-3)Gal(b1-4)GlcNAc(b1-2)Man(a1-3)[Gal(b1-4)GlcNAc(b1-3)Gal(b1-4)GlcNAc(b1-2)Man(a1-6)]Man(b1-4)GlcNAc(b1-4)[Fuc(a1-6)]GlcNAc
# Method in brief: as §1
# [16] = target: Gal(b1-4)GlcNAc(b1-3)Gal(b1-4)GlcNAc(b1-2)[Gal(b1-4)GlcNAc(b1-3)Gal(b1-4)GlcNAc(b1-6)]Man(a1-6)[Gal(b1-4)GlcNAc(b1-3)Gal(b1-4)GlcNAc(b1-2)Man(a1-3)]Man(b1-4)GlcNAc(b1-4)GlcNAc
# Method in brief: as §1
# [17] = target: Gal(b1-4)GlcNAc(b1-3)Gal(b1-4)GlcNAc(b1-2)[Gal(b1-4)GlcNAc(b1-3)Gal(b1-4)GlcNAc(b1-6)]Man(a1-6)[Gal(b1-4)GlcNAc(b1-3)Gal(b1-4)GlcNAc(b1-2)Man(a1-3)]Man(b1-4)GlcNAc(b1-4)[Fuc(a1-6)]GlcNAc
# Method in brief: as §1
# [18] = target: Gal(b1-4)GlcNAc(b1-3)Gal(b1-4)GlcNAc(b1-3)Gal(b1-4)GlcNAc
# Method in brief: as §1
binder,measurement,setting,value
PX9961U-pdi-543-24-543 (Parabacteroides distasonis) (protein) EEPVGEFLPGQVESEENIEGIVTGAYAVLDGYYASDAINSGCSNWQFGDVVSDDAYKGGGGTGDQNQIHLMEIFNANPTGIDFEARWAALYEGIKRCNQAIRLLNGSEVKNKEQRLAEMRFLRGHYYFNLKIIYNQIPWIDETLVDPNEYNKKSNIEFSSDQLWEKILEEFSAAYKVLPESQADYGRPTKMAARAYMAKVYLYQSKWKECLEACDEVIQSGKYELFPDFRNVFLPENDNCSEIIFAIQLSINDGSPNNENGSYGDRLLPPGGPYPVYGFLRPTQNLVNAYKTDVKGLPYNDGKDVSENDYVDVRLDHTLARPNIPFMDVQLYDWTPREASVYGPYSPKKRLVSLNSTYYSPIWPYVNALNFYVIRYADLLLWRAEAAIETGDLETGRKYINMIRERAKNTQHVKTMDQSQDAANYKVGVYDEPFKSKNEAVQALRMERRLEMAHEGIRFFDLVRWGVADEVINAYIAKEKVFRSHLQNAHFVKGKHEYFPIPQSMIDICGTEVMKQNPGY,glycan array binding signal (z-score),[1],2.55
same,glycan array binding signal (z-score),[2],-0.378
same,glycan array binding signal (z-score),[3],-0.303
same,glycan array binding signal (z-score),[4],0.135
same,glycan array binding signal (z-score),[5],3.19
same,glycan array binding signal (z-score),[6],1.91
same,glycan array binding signal (z-score),[7],-0.26
same,glycan array binding signal (z-score),[8],2.65
same,glycan array binding signal (z-score),[9],-0.304
same,glycan array binding signal (z-score),[10],-0.235
same,glycan array binding signal (z-score),[11],-0.258
same,glycan array binding signal (z-score),[12],-0.223
same,glycan array binding signal (z-score),[13],-0.398
same,glycan array binding signal (z-score),[14],-0.05
same,glycan array binding signal (z-score),[15],0.935
same,glycan array binding signal (z-score),[16],0.406
same,glycan array binding signal (z-score),[17],2.13
same,glycan array binding signal (z-score),[18],-0.214
